Test results reported in the supplement of paper PMC8728848.
The list shows a part of the results.

What was measured:
Experiment in all cases: glycan array binding signal (z-score within array); higher = stronger binding
Conditions in all cases: glycan notation: IUPAC condensed, linker removed
Fuc(a1-2)Gal = target: Fuc(a1-2)Gal
How it was run: (§1)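 From the Consortium for Functional Glycomics database, 3228 arrays were curated, keeping only those whose protein sequence was available. Binding is given as a within-array Z-score averaged across arrays sharing a protein sequence and across linkers. Negative Z-scores can be read as non-binding.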

Fuc(a1-2)Gal(b1-3)GalNAc = target: Fuc(a1-2)Gal(b1-3)GalNAc
How it was run: as §1

[1] = target: Fuc(a1-2)Gal(b1-3)GalNAc(a1-3)[Fuc(a1-2)]Gal(b1-4)Glc
How it was run: as §1

[2] = target: Fuc(a1-2)Gal(b1-3)GalNAc(a1-3)[Fuc(a1-2)]Gal(b1-4)GlcNAc
How it was run: as §1

[3] = target: Fuc(a1-2)Gal(b1-3)GalNAc(b1-3)Gal
How it was run: as §1

[4] = target: Fuc(a1-2)Gal(b1-3)GalNAc(b1-3)Gal(a1-4)Gal(b1-4)Glc
How it was run: as §1

[5] = target: Fuc(a1-2)Gal(b1-3)GalNAc(b1-4)[Neu5Ac(a2-3)]Gal(b1-4)Glc
How it was run: as §1

Fuc(a1-2)Gal(b1-3)GlcNAc = target: Fuc(a1-2)Gal(b1-3)GlcNAc
How it was run: as §1

[6] = target: Fuc(a1-2)Gal(b1-3)GlcNAc(b1-2)Man(a1-3)[Fuc(a1-2)Gal(b1-3)GlcNAc(b1-2)Man(a1-6)]Man(b1-4)GlcNAc(b1-4)GlcNAc
How it was run: as §1

[7] = target: Fuc(a1-2)Gal(b1-3)GlcNAc(b1-2)Man(a1-3)[Fuc(a1-2)Gal(b1-3)GlcNAc(b1-2)Man(a1-6)]Man(b1-4)GlcNAc(b1-4)[Fuc(a1-6)]GlcNAc
How it was run: as §1

[8] = target: Fuc(a1-2)Gal(b1-3)GlcNAc(b1-3)Gal(b1-4)Glc
How it was run: as §1

[9] = target: Fuc(a1-2)Gal(b1-3)GlcNAc(b1-3)GalNAc
How it was run: as §1

[10] = target: Fuc(a1-2)Gal(b1-3)GlcNAc(b1-3)[Fuc(a1-2)Gal(b1-3)GlcNAc(b1-6)]GalNAc
How it was run: as §1

[11] = target: Fuc(a1-2)Gal(b1-3)GlcNAc(b1-3)[Gal(b1-4)GlcNAc(b1-6)]Gal(b1-4)Glc
How it was run: as §1

[12] = target: Fuc(a1-2)Gal(b1-3)GlcNAc(b1-3)[Gal(b1-4)[Fuc(a1-3)]GlcNAc(b1-6)]Gal(b1-4)Glc
How it was run: as §1

[13] = target: Fuc(a1-2)Gal(b1-3)GlcNAc(b1-3)[Neu5Ac(a2-6)Gal(b1-4)GlcNAc(b1-6)]Gal(b1-4)Glc
How it was run: as §1

[14] = target: Fuc(a1-2)Gal(b1-3)GlcNAc6S
How it was run: as §1

[15] = target: Fuc(a1-2)Gal(b1-3)[Fuc(a1-4)]GlcNAc
How it was run: as §1

[16] = target: Fuc(a1-2)Gal(b1-3)[Fuc(a1-4)]GlcNAc(b1-2)Man(a1-3)[Fuc(a1-2)Gal(b1-3)[Fuc(a1-4)]GlcNAc(b1-2)Man(a1-3)]Man(b1-4)GlcNAc(b1-4)GlcNAc
How it was run: as §1

[17] = target: Fuc(a1-2)Gal(b1-3)[Fuc(a1-4)]GlcNAc(b1-2)Man(a1-3)[Fuc(a1-2)Gal(b1-3)[Fuc(a1-4)]GlcNAc(b1-2)Man(a1-6)]Man(b1-4)GlcNAc(b1-4)GlcNAc
How it was run: as §1

[18] = target: Fuc(a1-2)Gal(b1-3)[Fuc(a1-4)]GlcNAc(b1-2)Man(a1-3)[Fuc(a1-2)Gal(b1-3)[Fuc(a1-4)]GlcNAc(b1-2)Man(a1-6)]Man(b1-4)GlcNAc(b1-4)[Fuc(a1-6)]GlcNAc(b1-4)[Fuc(a1-6)]GlcNAc
How it was run: as §1

[19] = target: Fuc(a1-2)Gal(b1-3)[Fuc(a1-4)]GlcNAc(b1-3)[Fuc(a1-3)[Gal(b1-4)]GlcNAc(b1-6)]Gal(b1-4)Glc
How it was run: as §1

[20] = target: Fuc(a1-2)Gal(b1-3)[Fuc(a1-4)]GlcNAc(b1-3)[Gal(b1-4)GlcNAc(b1-6)]Gal(b1-4)Glc
How it was run: as §1

[21] = target: Fuc(a1-2)Gal(b1-4)Fuc(a1-3)]GlcNAc(b1-2)Man(a1-3)[Fuc(a1-2)Gal(b1-4)[Fuc(a1-3)]GlcNAc(b1-2)Man(a1-6)]Man(b1-4)GlcNAc(b1-4)GlcNAc
How it was run: as §1

Fuc(a1-2)Gal(b1-4)Glc = target: Fuc(a1-2)Gal(b1-4)Glc
How it was run: as §1

Fuc(a1-2)Gal(b1-4)Glc6S = target: Fuc(a1-2)Gal(b1-4)Glc6S
How it was run: as §1

Fuc(a1-2)Gal(b1-4)GlcNAc = target: Fuc(a1-2)Gal(b1-4)GlcNAc
How it was run: as §1

[22] = target: Fuc(a1-2)Gal(b1-4)GlcNAc(b1-2)Man
How it was run: as §1

[23] = target: Fuc(a1-2)Gal(b1-4)GlcNAc(b1-2)Man(a1-3)[Fuc(a1-2)Gal(b1-4)GlcNAc(b1-2)Man(a1-6)]Man(b1-4)GlcNAc(b1-4)GlcNAc
How it was run: as §1

[24] = target: Fuc(a1-2)Gal(b1-4)GlcNAc(b1-2)Man(a1-3)[Fuc(a1-2)Gal(b1-4)GlcNAc(b1-2)Man(a1-6)]Man(b1-4)GlcNAc(b1-4)[Fuc(a1-6)]GlcNAc
How it was run: as §1

B1: HPA (Helix pomatia), Q2F1K8 (protein)
chain: MQAFYSGLLLLCVVAFAAAQRVQSGKIDCGNDAGWAKVPSDDPGRDNTRELAKNITFASPYCRPPVVLLSITQLDVEQSQNLRVIARLYSVSPTGFKASCYTWHNTKVYSMSISWISIENY
glycan array binding signal (z-score) (Fuc(a1-2)Gal): -0.198 | glycan array binding signal (z-score) (Fuc(a1-2)Gal(b1-3)GalNAc): -0.057 | glycan array binding signal (z-score) [1]: -0.006 | glycan array binding signal (z-score) [2]: 0.012 | glycan array binding signal (z-score) [3]: -0.083 | glycan array binding signal (z-score) [4]: -0.204 | glycan array binding signal (z-score) [5]: -0.266 | glycan array binding signal (z-score) (Fuc(a1-2)Gal(b1-3)GlcNAc): 0.334 | glycan array binding signal (z-score) [6]: 0.956 | glycan array binding signal (z-score) [7]: -0.299 | glycan array binding signal (z-score) [8]: -0.317 | glycan array binding signal (z-score) [9]: -0.279 | glycan array binding signal (z-score) [10]: 0.06 | glycan array binding signal (z-score) [11]: -0.27 | glycan array binding signal (z-score) [12]: -0.454 | glycan array binding signal (z-score) [13]: -0.283 | glycan array binding signal (z-score) [14]: -0.152 | glycan array binding signal (z-score) [15]: 0.273 | glycan array binding signal (z-score) [16]: -0.094 | glycan array binding signal (z-score) [17]: 4.62 | glycan array binding signal (z-score) [18]: -0.007 | glycan array binding signal (z-score) [19]: -0.267 | glycan array binding signal (z-score) [20]: -0.126 | glycan array binding signal (z-score) [21]: 0.125 | glycan array binding signal (z-score) (Fuc(a1-2)Gal(b1-4)Glc): -0.402 | glycan array binding signal (z-score) (Fuc(a1-2)Gal(b1-4)Glc6S): 0.024 | glycan array binding signal (z-score) (Fuc(a1-2)Gal(b1-4)GlcNAc): -0.28 | glycan array binding signal (z-score) [22]: -0.353 | glycan array binding signal (z-score) [23]: 0.216 | glycan array binding signal (z-score) [24]: -0.322
